# Results: the BET-seq Pho4 binding data (Le et al. 2018)
# The other results are listed elsewhere or left out. These are noisy estimates, calculated here from bound and input reads.
# Molecular target: T1, Pho4 (S. cerevisiae) (UniProt P07270)
# T1 sequence: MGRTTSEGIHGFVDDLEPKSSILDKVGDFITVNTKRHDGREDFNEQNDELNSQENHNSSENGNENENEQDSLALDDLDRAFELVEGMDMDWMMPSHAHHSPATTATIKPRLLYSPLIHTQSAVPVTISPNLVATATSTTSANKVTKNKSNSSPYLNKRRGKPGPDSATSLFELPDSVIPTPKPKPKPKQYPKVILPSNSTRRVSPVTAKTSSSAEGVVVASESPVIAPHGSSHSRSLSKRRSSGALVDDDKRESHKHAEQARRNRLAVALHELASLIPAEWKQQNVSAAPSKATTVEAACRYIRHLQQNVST
# Assay: relative binding free energy (BET-seq); higher = weaker binding
# Conditions: reference: library average
row,Sequence,relative binding free energy [kcal/mol]
1,TAGGTCACGTGGCTAG,-0.07
2,TGCGGCACGTGATGCG,-0.19
3,GTTTACACGTGGGTAC,0.08
4,TGTGACACGTGGGTCC,-0.11
5,GTTGGCACGTGCTTAG,0
6,GGGTACACGTGTTATG,0.17
7,GGTGGCACGTGCGGAC,-0.2
8,AGTCGCACGTGGACGG,0.04
9,AGTAACACGTGGTATA,-0.11
10,GTGAGCACGTGCGGAG,-0.18
11,AGGGACACGTGGAGTG,0
12,TCGGGCACGTGCGATG,-0.18
13,GGCGTCACGTGTTTAG,0.09
14,TGTGGCACGTGGCGGA,-0.16
15,TTCTGCACGTGTTTTT,0.05
16,TTTTGCACGTGGCTAG,-0.1
17,TCATTCACGTGAGATT,0.39
18,ATAAGCACGTGGGTTA,-0.18
19,ATTAGCACGTGGTTGC,-0.16
20,TGTTTCACGTGACGTG,0.42
21,TAATTCACGTGAGGGC,0.4
22,GAGGACACGTGGTGAA,0
23,TAATGCACGTGTTGAT,-0.1
24,ACTGGCACGTGATGTT,0.04
25,CTAATCACGTGTATTT,0.19
26,AGAGTCACGTGAGAGT,0.38

row,Sequence,relative binding free energy [kcal/mol]
1,AGGGGCACGTGTACGG,-0.19
2,TCGCGCACGTGGTTTG,-0.1
3,ATGGACACGTGTATGA,0.06
4,GCGGACACGTGGCGGG,-0.05
5,TGGCACACGTGGGTTA,-0.23
6,TGGGTCACGTGGGCTA,0.02
7,GGGGGCACGTGTTTTC,-0.1
8,TTTGGCACGTGCGAAT,0.04
9,CTTTGCACGTGACGGG,0.1
10,AATGACACGTGGGGAG,-0.04
11,AGTATCACGTGGGATT,0.06
12,TGTTACACGTGCGGTA,0.07
13,GAGGTCACGTGTGATA,0.23
14,AATGTCACGTGCGGAA,0.02
15,TTTGCCACGTGGATGA,0.02
16,AGGTCCACGTGCGGGG,-0.04
17,ATTTTCACGTGTTTTA,0.31
18,TGAATCACGTGGAGAG,0.15
19,GGCGGCACGTGTGTGT,-0.14
20,TGTGGCACGTGCGGGG,-0.13
21,GTTGCCACGTGGTGCT,-0.03
22,AGGGGCACGTGAGGCC,-0.02
23,AAGTTCACGTGAAGTG,0.25
24,GGCAGCACGTGTTGGT,0.01
25,GATTACACGTGGGTAG,0.04
26,TACTACACGTGGTAAT,0.32

row,Sequence,relative binding free energy [kcal/mol]
1,GTCAACACGTGGTGTG,-0.09
2,AAGGGCACGTGTAGGA,-0.06
3,ATGCTCACGTGTTAGG,0.05
4,AGTTGCACGTGTCCGG,0.08
5,TGGCACACGTGGGTGC,-0.03
6,TAAAACACGTGGAATG,0.24
7,GGGAACACGTGTGGCG,0.11
8,CAAGGCACGTGAATGG,0.1
9,CTTTGCACGTGTTCGG,0.05
10,GGGAGCACGTGTATTA,-0.12
11,TTCGTCACGTGCAGTT,0.21
12,GGCGTCACGTGCTGTG,0
13,TAGTTCACGTGAATTG,0.26
14,ATATTCACGTGTAGAA,0.16
15,GGGAACACGTGCGGGC,0.03
16,TTGTACACGTGGTGCA,-0.11
17,TACGTCACGTGTTCAG,0.15
18,ATGACCACGTGATGGG,0.16
19,CATGGCACGTGGGGTT,-0.24
20,CGTATCACGTGGTCGT,0.09
21,GAGATCACGTGCGTGG,0.19
22,GGGGTCACGTGAGAGT,0.43
23,TTTTTCACGTGTTACA,0.34
24,TAAATCACGTGGGAGA,0.2
25,ATTACCACGTGTATGT,0.1
26,AACTGCACGTGTAGTG,0.1

row,Sequence,relative binding free energy [kcal/mol]
1,CTTAGCACGTGAGAGT,0.19
2,AAGTACACGTGTAGTG,0.04
3,TAGCACACGTGGTGTA,-0.11
4,GTGGACACGTGTTATG,0.08
5,GGAGGCACGTGGCCAG,-0.16
6,GATCGCACGTGGATTG,0.06
7,GCTAACACGTGGGGTT,-0.08
8,TTGCTCACGTGGTTGC,0.09
9,AGTGCCACGTGGGACG,-0.16
10,CTAGTCACGTGAATTA,0.54
11,GTTCGCACGTGTGCTG,-0.04
12,TGAGTCACGTGGATTT,0.28
13,TTACGCACGTGCGTGG,-0.23
14,CGTTGCACGTGTTTAG,0.07
15,TTTTTCACGTGTCTAA,0.13
16,AGGTGCACGTGGGAGG,-0.16
17,GGCGTCACGTGGTACG,0.22
18,CTGATCACGTGAGTTG,0.22
19,GGGGACACGTGGTCGG,-0.03
20,TAGTACACGTGATTAG,0.24
21,TTGTTCACGTGTGGAT,0.27
22,GTTAGCACGTGACGGT,0.16
23,CGGTTCACGTGGTTCT,0.2
24,GATGGCACGTGTACGG,0.08
25,GCATTCACGTGGTCGG,0.24
26,AGATGCACGTGAATTG,0.24

row,Sequence,relative binding free energy [kcal/mol]
1,ATGTGCACGTGCTGCG,-0.11
2,GTATGCACGTGTTATA,-0.08
3,CGGGCCACGTGGAGGG,-0.09
4,TCGAGCACGTGGGGGG,-0.27
5,TGTTCCACGTGTAGAG,0.07
6,TTTGACACGTGGTTTA,0.03
7,GCTGTCACGTGAGGGC,0.4
8,GGGTTCACGTGACAGT,0.4
9,ACGGGCACGTGGTAGT,-0.08
10,GGCGGCACGTGGGAGA,-0.11
11,AGAGGCACGTGGTGGC,-0.11
12,TAAGGCACGTGATGGA,0.1
13,TGTTGCACGTGAGGGT,0.21
14,GTGATCACGTGGGAAT,0.16
15,GCTGTCACGTGGAAGG,0.16
16,GCGTACACGTGAGCGG,0.38
17,GTAGTCACGTGGTCAT,-0.01
18,GGCTGCACGTGTAAAT,0.26
19,ATGTCCACGTGGGGGA,-0.19
20,AGTTACACGTGGTATC,0.03
21,AGTGCCACGTGGGGTG,-0.22
22,ATGTTCACGTGTGTTA,0.15
23,TTGGACACGTGTGGTC,0.25
24,CGGGACACGTGGTAGT,0.01
25,TAGGGCACGTGAGGGT,0.1
26,CTGGGCACGTGGTGTG,-0.17

row,Sequence,relative binding free energy [kcal/mol]
1,CGGGGCACGTGAGGCG,-0.04
2,TAAGTCACGTGGAATA,0.24
3,GTCTACACGTGGTTGG,0.22
4,GCTGGCACGTGTATGT,-0.05
5,CGTATCACGTGGAGTG,0.21
6,CTGTACACGTGTAGGG,0
7,GGATGCACGTGCCTTG,0.08
8,TACTACACGTGAGGTG,0.31
9,TAGATCACGTGGGGGT,-0.07
10,GGCATCACGTGTGTTA,0.24
11,TTTTGCACGTGTTCTA,-0.12
12,GGATGCACGTGTGCGC,-0.01
13,AATAACACGTGGAGTG,-0.14
14,TCGGGCACGTGTTACG,-0.15
15,CTTATCACGTGCTGGG,0.13
16,TGTATCACGTGTGATA,0.13
17,CGCGGCACGTGGTTGT,-0.13
18,GTGAACACGTGAGGTA,0.16
19,GCAGTCACGTGGTTGC,0.14
20,TAGCGCACGTGTAGGT,-0.07
21,GTGTGCACGTGGCGGT,0.02
22,TGTCACACGTGAGTTT,0.36
23,GTGGGCACGTGGATTC,0.07
24,CGAGGCACGTGGGTTC,-0.13
25,TTGGTCACGTGTAAGT,0.14
26,AGGTACACGTGTGAAG,0.1

row,Sequence,relative binding free energy [kcal/mol]
1,TGGTCCACGTGGAAGG,0.13
2,AGGTCCACGTGGTTAG,-0.08
3,TAAGACACGTGGGAGG,-0.02
4,TTATGCACGTGGCGGC,-0.13
5,CTAATCACGTGGATGT,0.18
6,TGTTTCACGTGGTGGT,0.38
7,GAATGCACGTGGCGGT,-0.05
8,AATGACACGTGGTGGA,-0.03
9,GCTTTCACGTGTTCGG,0.27
10,TTATGCACGTGGTCGG,-0.13
11,TCAGTCACGTGGGCGG,-0.02
12,TATGGCACGTGTCGTC,-0.08
13,GGTCGCACGTGGCGGT,-0.23
14,TAAGGCACGTGGAAGA,-0.06
15,TCCGGCACGTGTAGTG,-0.01
16,ATGAGCACGTGGAGGT,-0.02
17,TCTATCACGTGGGGGT,0.01
18,GGGTCCACGTGGAATT,0.18
19,GGATGCACGTGAGTGC,0.22
20,TATGTCACGTGGGCTG,-0.17
21,CGTGGCACGTGCTTTT,-0.16
22,CTGGGCACGTGTAAGA,0.11
23,AAGTGCACGTGATTGT,0.11
24,TATCGCACGTGAAATT,0.28
25,GGAGTCACGTGTTGCG,0.15
26,GGGTACACGTGATGAT,0.16

row,Sequence,relative binding free energy [kcal/mol]
1,AGATGCACGTGATGAG,0.17
2,ATGCGCACGTGGGATG,-0.17
3,GAGTTCACGTGGTTTA,0.41
4,TTGTCCACGTGGCTTG,-0.13
5,AGTAGCACGTGCGGGA,-0.1
6,ATAGGCACGTGAGTTA,0.06
7,TTGGCCACGTGGTAGC,-0.13
8,TCGTCCACGTGGTTGT,0.03
9,TCGTTCACGTGAGGGC,0.42
10,TATTACACGTGTGGCT,0.24
11,GGCATCACGTGAAGTT,0.47
12,AATTACACGTGTAATT,0.33
13,GAGAACACGTGTGCGT,0.06
14,CGGGTCACGTGGAGAA,0.16
15,CGTAGCACGTGAGGGA,0.12
16,TTGGGCACGTGGACTT,0.01
17,GTATGCACGTGGGATC,-0.03
18,AATATCACGTGTGATA,0.3
19,AGCTTCACGTGTTAGG,0.16
20,AGTTTCACGTGAATGG,0.35
21,GTTGGCACGTGGCGTC,-0.18
22,ACTGGCACGTGGCTGT,-0.2
23,ACTGGCACGTGGGGGA,-0.34
24,GATGTCACGTGCTTTG,0
25,AGCGACACGTGTTGTA,0.02
26,CGGGACACGTGTATTT,0.15

row,Sequence,relative binding free energy [kcal/mol]
1,GGCAGCACGTGGGAGT,-0.12
2,GCCAGCACGTGGTGGT,-0.12
3,GAGGGCACGTGACGGA,0.04
4,TATCGCACGTGTTGCT,-0.04
5,TAGGACACGTGGCTTA,0.19
6,ATAAGCACGTGGGGTT,-0.26
7,GCGCACACGTGAGGGT,0.39
8,AGGTGCACGTGATTTT,0.07
9,TCTATCACGTGGGATA,0.22
10,TGAGACACGTGGTAGA,-0.05
11,CATTGCACGTGGATTG,-0.01
12,AAGCTCACGTGGTGAT,0.33
13,TGTAACACGTGTATGG,-0.13
14,TGTTTCACGTGCTTAA,0.19
15,TGATGCACGTGTGTGA,-0.14
16,TTAGCCACGTGAATGG,0.1
17,AAAGGCACGTGACGTG,-0.09
18,TAAGACACGTGTGGTA,0.07
19,GGTTGCACGTGGGGTG,-0.05
20,ATTGGCACGTGTTCTG,-0.26
21,CCTAGCACGTGGGTGC,0.07
22,TTGGTCACGTGCAGGA,0.1
